Patent US20260265394A1 (CARTESIAN THERAPEUTICS, published 2026)

Molecular target: T1, allophycocyanin (APC)-conjugated BCMA (Recombinant Human TNFRSF17 protein, Fc-tagged, APC labeled); Creative … (human, UniProt Q02223 1-54, allophycocyanin (APC) conjugated)
T1 construct: Bought reagent, used at 0.4 ug/mL to stain CAR T cells; also called BCMA-APC; recombinant BCMA-APC; not shown: Fc tag
T1 sequence (looked up): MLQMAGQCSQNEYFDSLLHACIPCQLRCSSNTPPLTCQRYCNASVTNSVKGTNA
Test: flow cytometry, CAR T cells stained with BCMA-APC
Experimental: CAR T cells obtained from the above-described process were tested for viability, CAR protein expression, BCMA binding, cytotoxicity, i.e., the ability to kill BCMA+ myeloma (tumor) cells, and cytokine production. Resistance of the CAR protein to downregulation was tested by incubation of CAR T cells with, or without, BCMA+ myeloma cells, followed by analysis of CAR expression. Viability, CAR expression, and BCMA binding were determined by flow cytometry on a Guava® EasyCyte® 12HT Flow cytometer (Luminex). To test viability, a sample of the CAR T cells was mixed with propidium iodide and acridine orange and analyzed by fluorescence microscopy using a Nexcelom Auto 2000 cytometer. To test CAR protein expression and BCMA binding, a sample of the CAR T cells was incubated with 0.4 μg/mL of allophycocyanin (APC)-conjugated BCMA (Recombinant Human TNFRSF17 protein, Fc-tagged, APC labeled; Creative Biomart, Shirley, NY). CAR expression was assessed on the flow cytometer with electronic gating on fluorescence in the red channel to detect presence or absence of emission from BCMA-APC on CAR-positive and CAR-negative cells. BCMA binding was determined by measuring the intensity of fluorescence in the red channel to determine the relative quantity of BCMA-APC bound to labelled CAR-positive cells. […]

B1: Anti-BCMA CAR containing WT CD3z only (SEQ ID NO: 1) (receptor)
chain: DIVLTQSPASLAVSPGQRATITCRASESVTILGSHLIHWYQQKPGQPPKLLINLASNVNTGVPARFSGSGSGTDFTLTISSVEPEDTANYYCLQSRTLPRTFGQGTKVEIKGSTSGSGKPGSGEGSTKGQIQLVQSGPELKKPGGSVKISCKASGYTFTDYSINWVRQAPGKGLEWVGWINTETREPAYAYDFRGRFTFSADTSKSMAYLQINSLRAEDTAVYYCALDYTYGMDYWGQGTLVTVSSFVPVFLPAKPTTTPAPRPPTPAPTIASQPLSLRPEACRPAAGGAVHTRGLDFACDIYIWAPLAGTCGVLLLSLVITLYCNHRN[about 120 residues skipped]
notes: Chimeric antigen receptor (signal peptide-scFv-CD8-CD3-zeta) expressed on human CD8+ T cells after electroporation of IVT mRNA; The entry includes the signal peptide; also called wild-type CAR
binding result: binds
